{
  "source": "PubChem BioAssay AID504466",
  "about": "(National Center for Advancing Translational Sciences (NCATS), 2011)",
  "note": "The campaign covered roughly 330,000 compounds. About 4,200 (1.3%) were called active. The shares of active, inactive and inconclusive entries below differ from those in the screen. The call rests on the fitted dose curve; in most records, active means well fitted activation curve with a large enough effect; inconclusive means small, poorly fitted or top-dose-only effect; inactive means no such curve, though single readings can be large or run the other way. Potencies beside an inconclusive call are fits to weak or partial responses and may not hold up. Potency means the concentration at half of the fitted maximal effect; tags describe the fitted curve by direction and shape.",
  "data": [
    {"assay": "qHTS screen for small molecules that induce genotoxicity in human embryonic kidney (HEK293T) cells expressing luciferase-tagged ELG1; further: nearly all actives have a fitted effect of over 60% in size; on activity change, positive = activation: % of control where 0% means no effect", "conditions": "HEK293T ELG1-luciferase reporter, luminescence, 16 h; series mostly up to 46 µM; activity change, positive = activation: at the top concentration", "in_short": "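Reporter readout depends on ELG1 protein level, which increases with genetic stress. After 16 hr compound exposure at 37 °C, luciferase activity was quantified using ONE-Glo.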", "values": [
      {"compound": "Cc1ccc(-c2nc3ccccc3[nH]2)cc1NC(=O)c1sc2cc(Cl)ccc2c1Cl", "activity change, positive = activation": "inactive: 1.54%"},
      {"compound": "Cc1cc(-n2nc(C)cc2C)n2nc(C)c(-c3ccc(Cl)cc3)c2n1", "Potency": "inconclusive: 11.6 µM [activator, partial curve, poor fit]"},
      {"compound": "Cc1nc(NC(=O)c2cccs2)ccc1Br", "Potency": "inconclusive: 4.11 µM [activator, full curve]"},
      {"compound": "CC(=O)CSc1nc2c(c(=O)[nH]c(=O)n2C)n1CCCc1ccccc1", "Potency": "inconclusive: 20.6 µM [activator, single point]"},
      {"compound": "Cc1ccc(NC(=O)COc2ccc(Br)cc2C)cc1", "Potency": "inconclusive: 18.4 µM [activator, partial curve, poor fit]"},
      {"compound": "O=C(N/N=C/c1ccncc1)c1ccc(NC(=O)c2ccc(Cl)cc2)cc1", "Potency": "inconclusive: 29.1 µM [activator, single point]"},
      {"compound": "COc1ccc(-c2cc(-c3n[nH]c(=S)n3-c3cc(OC)ccc3OC)[nH]n2)cc1", "Potency": "inconclusive: 29.1 µM [activator, partial curve, poor fit]"},
      {"compound": "O=C(CN(C(=O)CCC(=O)Nc1nccs1)c1cccc(F)c1)NCc1ccccc1", "Potency": "inconclusive: 32.6 µM [activator, partial curve, poor fit]"},
      {"compound": "COc1cc(SC)ccc1C(=O)Nc1ccc(OCC(=O)N2CCOCC2)cc1", "Potency": "inconclusive: 8.2 µM [activator, partial curve]"},
      {"compound": "CC(=O)c1c(C)[nH]c(C(=O)NC2CCSc3ccccc32)c1C", "note": "(stereo not given)", "activity change, positive = activation": "inactive: -2.94%"},
      {"compound": "O=C(/C=C\\Nc1ccccn1)c1ccccc1", "Potency": "active: 0.517 µM"},
      {"compound": "CCCCNc1c(-c2ccc(OC)c(Sc3ccc(OC)cc3)c2)nc2ccc(Cl)cn12", "activity change, positive = activation": "inactive: -4.18%"},
      {"compound": "COc1cc(/C=N/NC(=O)NC2CCCCC2)ccc1O", "Potency": "inconclusive: 23.1 µM [activator, single point]"},
      {"compound": "Cc1ccccc1NS(=O)(=O)c1ccc2c3c(cccc13)C(=O)N2C", "Potency": "active: 20.6 µM"},
      {"compound": "O=C(Nc1ccccc1)O/N=C/c1ccc(F)cc1", "Potency": "inconclusive: 3.98 µM [activator, single point]"},
      {"compound": "COc1ccc(C(=O)OCC(=O)c2ccc(C3CCCCC3)cc2)cc1", "Potency": "active: 6.51 µM"},
      {"compound": "COC(=O)c1ccc2c(=O)n(CC3CCCO3)c(SCC(=O)Nc3ccccc3Cl)nc2c1", "note": "(stereo not given)", "Potency": "inconclusive: 15.8 µM [activator, partial curve, poor fit]"},
      {"compound": "Cc1nn(-c2nnc(NCc3ccccc3)nn2)c(C)c1Br", "Potency": "inconclusive: 29.1 µM [activator, single point]"},
      {"compound": "CCCC(=O)N=c1sc2cccc(F)c2n1C", "Potency": "inconclusive: 20.6 µM [activator, single point]"},
      {"compound": "C/C(=N\\NC(=O)CN1CCN(Cc2ccc(C)cc2)CC1)c1ccncc1", "activity change, positive = activation": "inactive: 0.755%"},
      {"compound": "COc1ccc(NC2CC(=O)N(c3ccccc3)C2=O)cc1", "note": "(stereo not given)", "Potency": "inconclusive: 18.4 µM [activator, partial curve, poor fit]"},
      {"compound": "CC(=O)N/N=C\\c1cccc(OC/C=C/c2ccccc2)c1", "Potency": "inconclusive: 1.64 µM [activator, partial curve]"},
      {"compound": "COc1ccc2cc(S(=O)(=O)c3ccccc3)c(=O)oc2c1", "activity change, positive = activation": "inactive: -2.37%"},
      {"compound": "CCOC(=O)c1sc(NC(=S)NC(=O)C2CC2)cc1C", "Potency": "inconclusive: 11.6 µM [activator, partial curve, poor fit]"},
      {"compound": "CSCCC(NS(=O)(=O)c1ccc(C)cc1)C(=O)NCC(C)(C)N1CCOCC1", "note": "(stereo not given)", "activity change, positive = activation": "inactive: 1.2%"},
      {"compound": "Fc1cccc(F)c1/C=N/NC(=S)Nc1cccnc1", "activity change, positive = activation": "inactive: -0.023%"},
      {"compound": "CSc1n[nH]c(NCc2ccc(C)cc2)n1", "Potency": "inconclusive: 16.4 µM [activator, single point]"},
      {"compound": "COc1ccc(C(=O)NCc2nnc(SCC(=O)Nc3nc4ccc(C)cc4s3)o2)cc1OC", "Potency": "inconclusive: 20.6 µM [activator, single point]"},
      {"compound": "COC(=O)c1sc(NC(=S)NC(=O)c2cccc(C)c2)nc1C", "Potency": "inconclusive: 20.6 µM [activator, partial curve]"},
      {"compound": "Cn1nnc2c[n+](CC(=O)c3ccc(Cl)cc3)cc(Br)c21", "Potency": "inconclusive: 32.6 µM [activator, partial curve, poor fit]"},
      {"compound": "O=[N+]([O-])c1ccccc1OCCCOc1cccc2cccnc12", "Potency": "inconclusive: 23.1 µM [activator, partial curve, poor fit]"},
      {"compound": "CC(=O)c1sc(N/N=C\\c2ccc(N(C)C)cc2)nc1C", "Potency": "active: 4.61 µM"},
      {"compound": "Cn1c(SCc2nc3ccccc3s2)nnc1-c1cccs1", "Potency": "inconclusive: 25.9 µM [activator, partial curve, poor fit]"},
      {"compound": "CCOCC(=O)Nc1nc2ccccc2s1", "Potency": "inconclusive: 23.1 µM [activator, single point]"},
      {"compound": "O=C(N=c1nc2ccccn2s1)c1ccccc1", "Potency": "active: 0.13 µM"},
      {"compound": "Cc1ccc(-c2cc(C(=O)N3CCCCCC3)no2)cc1", "Potency": "inconclusive: 7.94 µM [activator, partial curve, poor fit]"},
      {"compound": "CC(C)(C)c1cc(C(c2cccnc2)N2CCN(CCO)CC2)cc(C(C)(C)C)c1O", "note": "(stereo not given)", "Potency": "inconclusive: 23.1 µM [activator, partial curve, poor fit]"},
      {"compound": "O=c1c2ccccc2sn1-c1ccc(S(=O)(=O)N2CCCC2)cc1", "activity change, positive = activation": "inactive: -0.398%"},
      {"compound": "COc1ccc(C(=O)/C=C/Nc2cccc(O)c2)cc1", "Potency": "active: 1.46 µM"},
      {"compound": "COc1ccc(CCN2C(=O)c3ccccc3NC2c2cc(Cl)c(O)c(OC)c2)cc1", "note": "(stereo not given)", "activity change, positive = activation": "inactive: -6.25%"},
      {"compound": "Cc1ccsc1C(=O)OCC(=O)N1CCOCC1", "Potency": "inconclusive: 16.4 µM [activator, partial curve, poor fit]"},
      {"compound": "Cc1cccc(/C=C2\\Oc3cc(OS(C)(=O)=O)ccc3C2=O)c1", "activity change, positive = activation": "inactive: 8.57%"},
      {"compound": "C/C(=N/Nc1ccccc1C(=O)O)c1cccs1", "Potency": "inconclusive: 9.2 µM [activator, partial curve, poor fit]"},
      {"compound": "Cn1c(CCc2nc3ccccc3[nH]2)nnc1SCC#N", "activity change, positive = activation": "inactive: -8.56%"},
      {"compound": "COc1ccc(/C=C2/SC(=O)N(CCNC(=O)CC(NC(C)=O)c3ccccc3)C2=O)cc1", "note": "(stereo not given)", "Potency": "inconclusive: 25.9 µM [activator, single point]"},
      {"compound": "CCC(C)(C)n1nnnc1C(c1cc2cccc(C)c2[nH]c1=O)N1CCCC1", "note": "(stereo not given)", "activity change, positive = activation": "inactive: -1.17%"},
      {"compound": "Cc1[nH]c(=O)[nH]c(=O)c1S(=O)(=O)Nc1cccc(C(F)(F)F)c1", "activity change, positive = activation": "inactive: 0.937%"},
      {"compound": "Cc1nc(NC(=O)/C=C/c2ccco2)sc1C", "Potency": "inconclusive: 20.6 µM [activator, partial curve]"},
      {"compound": "CC(C)OC(=O)CSc1nc(N)c(C#N)cc1C#N", "Potency": "inconclusive: 10.3 µM [activator, partial curve, poor fit]"},
      {"compound": "Nc1ccc2nc(SCc3cccc(F)c3)sc2c1", "Potency": "inconclusive: 4.11 µM [activator, full curve]"},
      {"compound": "NC(=O)c1ccc(F)cc1", "activity change, positive = activation": "inactive: 2.19%"},
      {"compound": "CCSc1nnc(NC(=O)c2cc(C)oc2C)s1", "Potency": "active: 7.31 µM"},
      {"compound": "Cc1cc(C(=O)CSc2nnnn2C)c(C)n1-c1ccc2c(c1)OCCO2", "Potency": "active: 10 µM"},
      {"compound": "CC(C)c1ccc(-n2cnn(-c3ncccc3[N+](=O)[O-])c2=O)cc1", "Potency": "active: 2.31 µM"},
      {"compound": "CCOc1ccc(NCCC(O)c2ccc(F)cc2)cc1", "note": "(stereo not given)", "activity change, positive = activation": "inactive: 0.563%"},
      {"compound": "CCCOc1ccc(CNC(=O)Cn2ncc3ccccc32)cc1", "Potency": "inconclusive: 20.6 µM [activator, partial curve, poor fit]"},
      {"compound": "CCOc1ccc(NC(=O)Cn2ncc3ccccc32)cc1", "Potency": "inconclusive: 20.6 µM [activator, partial curve, poor fit]"},
      {"compound": "Cc1ccc(C(=O)NNC(=O)CSc2nnc3c(n2)[nH]c2ccc(C)cc23)cc1", "Potency": "inconclusive: 18.4 µM [activator, partial curve, poor fit]"},
      {"compound": "Fc1ccc(-c2cnc[nH]2)cc1", "Potency": "inconclusive: 5.01 µM [activator, full curve, poor fit]"},
      {"compound": "Cc1nc(NC(=S)NC(=O)c2ccccc2)sc1C", "Potency": "inconclusive: 7.3 µM [activator, partial curve, poor fit]"},
      {"compound": "O=C(c1cccs1)c1ccc(-c2cccs2)s1", "Potency": "inconclusive: 4.11 µM [activator, partial curve]"},
      {"compound": "COc1ccc(NC(=O)c2ccc(NC(=O)C3CC3)cc2)cc1", "Potency": "inconclusive: 25.9 µM [activator, single point]"},
      {"compound": "O=C(O/N=C(/c1ccccc1)c1ccncc1)c1ccc(F)cc1", "activity change, positive = activation": "inactive: -3.31%"},
      {"compound": "CCCn1nc(C(=O)Nc2ccc3c(c2)OCCO3)c2ccccc2c1=O", "activity change, positive = activation": "inactive: 0.279%"},
      {"compound": "COc1ccccc1C(=O)OCC(=O)Nc1ccc(Cl)cn1", "Potency": "inconclusive: 18.3 µM [activator, single point]"},
      {"compound": "CCN(C(=O)CSc1nccc(=O)[nH]1)c1cccc2ccccc12", "activity change, positive = activation": "inactive: 3.71%"},
      {"compound": "CN(Cc1ccccc1F)C(=O)c1ccc2c(=O)n3c(nc2c1)CCC3", "activity change, positive = activation": "inactive: 1.05%"},
      {"compound": "CCc1ccc(NC(=O)C(=O)NCCOc2ccccc2Cl)cc1", "activity change, positive = activation": "inactive: -0.541%"},
      {"compound": "Oc1cccc(/C=N/N2CCN(c3ccccn3)CC2)c1", "Potency": "inconclusive: 23.1 µM [activator, partial curve, poor fit]"},
      {"compound": "CC1(C)CC(=O)c2sc(NC(=O)C3COc4ccccc4O3)nc2C1", "note": "(stereo not given)", "Potency": "active: 20.6 µM"},
      {"compound": "Cn1cc(Cl)c(C(=O)Nc2cccc(Cl)c2Cl)n1", "activity change, positive = activation": "inactive: -0.631%"},
      {"compound": "CCN(CC)CCNC(=O)c1cc2c(-c3ccc(Cl)cc3)nn(C)c2s1", "Potency": "inconclusive: 20.6 µM [activator, single point]"},
      {"compound": "CC1(C)CC(NC(=O)c2coc(=O)c(Br)c2)CC(C)(C)N1", "Potency": "inconclusive: 20.6 µM [activator, partial curve, poor fit]"},
      {"compound": "Cc1ccccc1SCC(=O)NNC(=O)c1ccccc1O", "Potency": "inconclusive: 9.2 µM [activator, partial curve, poor fit]"},
      {"compound": "O=c1[nH]c(/C=C/c2ccc(Br)cc2)nc2ccccc12", "Potency": "inconclusive: 1.3 µM [activator, full curve]"}
    ]}
  ]
}
